We go through 42 compounds from ChEMBL document CHEMBL4888484, “Replenishing the malaria drug discovery pipeline: Screening and hit evaluation of the MMV Hit Generation Library 1 (HGL1) against asexual blood stage Plasmodium falciparum ,using a nano luciferase reporter read-out” (2022).

SMILES strings stand for the structures. Hit rate of the full screen: of about 150,000 compounds, about 540 (0.36%) showed an effect of 50% or more. This is one part of the list.

The test has as its system Plasmodium falciparum. As to the kind of experiment: Primary screen in NF54 nanoGlo assay, in single point, at 2uM, 72h; a lower Z score goes with more inhibition. In kind it is functional, Erythrocyte. The conditions noted are these: timepoint 72 hour.
In general, % Inhibition refers to the drop in the measured response relative to a control, in per cent. Consider `Cc1cccnc1C(=O)N1C[C@H](c2cc(F)cc(F)c2)[C@@H]2[C@H]1C1CCN2CC1`, for which the “% Inhibition” value amounted to 16% and the Z score is recorded as -1.53.

In the case of `COc1ccc2c(c1)C[C@]1(CN2C)C(=O)N(c2ccc(C)cc2)C(=O)N=C1O`, the “% Inhibition” value turned out to be 9% and the Z score is -1.15.

Consider `Cc1cc(C)cc(C[C@H](C)NC(=O)CN2CCOC2=O)c1`, for which the “% Inhibition” value is reported as -20% and the Z score amounted to 2.81.

As for `COc1cccc(CC(=O)N2CCCCC[C@@H]2CN2CCCC2)c1`, the “% Inhibition” value is -1% and the Z score was found to be 0.16.

With `CN1CCN2CCN(C(=O)c3ccncc3F)C[C@H]2C1=O`, the “% Inhibition” value is -15% and the Z score turned out to be 2.98.

Take `Cc1ccc(CN(Cc2ccncc2)C(=O)[C@H](C)N2CCCC2=O)s1`: the “% Inhibition” value turned out to be 0% and the Z score was -0.01.

In the case of `O=C(COc1ccc(Br)cc1F)N1CCC2(CC1)OCCO2`, the “% Inhibition” value is recorded as -11% and the Z score was 1.17.

In the case of `CC(C)c1nc(CN2C[C@@H]3NCCO[C@H]3C2)co1`, the “% Inhibition” value is listed as -9% and the Z score amounted to 1.09.

With `CCn1nc(C)c(CN2CCC[C@H](C(=O)c3ccccn3)C2)c1C`, the “% Inhibition” value worked out at 1% and the Z score is given as -0.19.

For `CCN1CCN(c2nc3ccccc3c(=O)[nH]2)CC1`, the “% Inhibition” value was 0% and the Z score is recorded as -0.01.

Turning to `C=CCNC(=O)Cn1c(-c2ncccn2)noc1=O`, the “% Inhibition” value is 6% and the Z score is on record as -0.88.

For `C[C@@H](Cc1ccc(Cl)cc1Cl)NC(=O)NCCCCn1cnnc1`, the “% Inhibition” value turned out to be 3% and the Z score was -0.5.

As for `Cc1ccc(N2C(=O)NC(=O)C3(Cc4ccccc4N4CCCC43)C2=O)cc1` (centres undefined), the “% Inhibition” value is listed as 8% and the Z score is on record as -1.04.

Turning to `Cc1ccc(-c2nnc(N3CCC(C(=O)N4CCC5(CC4)OCCO5)CC3)o2)cc1`, the “% Inhibition” value is on record as -9% and the Z score amounted to 1.39.

Turning to `CCOc1cccc2c1cc(C(=O)NCc1ccc(F)cc1)n2Cc1ccc(C(C)(C)C)cc1`, the “% Inhibition” value is -13% and the Z score was 1.47.

Consider `CN(C)CCN1CCN(C(=O)Cc2ccn(-c3ccccc3)n2)CC1`, for which the “% Inhibition” value is 8% and the Z score is given as -1.04.

As for `Cc1ccc(C2(CNC(=O)Cc3ccc(S(=O)(=O)F)cc3)CCC2)cc1C`, the “% Inhibition” value is reported as 6% and the Z score was -1.05.

As for `COc1ccc(OC)c(CC2(CN3CCc4cc(OC)c(OC)cc4[C@@H]3C)C(=O)N(C)C(=O)N(C)C2=O)c1`, the “% Inhibition” value is -12% and the Z score is 1.49.

For `O=C(Cc1ccc(Cl)c(Cl)c1)N1CCN(CCc2cnccn2)CC1`, the “% Inhibition” value was -26% and the Z score is on record as 3.42.

Consider `OCCN1CCN(Cc2cccc3c2OCO3)CC1`, for which the “% Inhibition” value is given as -5% and the Z score came out at 0.49.

In the case of `O=C(c1cc2n(n1)CCN(Cc1ccc(Cl)cc1)C2=O)N1CCC2(CC1)OCCO2`, the “% Inhibition” value stood at 1% and the Z score is recorded as -0.21.

As to `Cc1ccc(CC(C)NC(=O)NC2CCC(=O)N(C)C2)c(C)c1` (centres undefined), the “% Inhibition” value is given as -5% and the Z score came to 0.56.

On to `CCc1ccc(S(=O)(=O)N(C(=O)Oc2ccccc2)c2ccc(OC(=O)Oc3ccccc3)cc2)cc1`, for which the “% Inhibition” value was -11% and the Z score was 1.88.

With `Cc1nnc(CN2C[C@@H]3CC[C@H]2CN(Cc2ccccn2)C3)o1`, the “% Inhibition” value is reported as 0% and the Z score is reported as -0.04.

`COc1ccc(-c2ccccc2N2CCNCC2)c2ccc(C)nc12`: the “% Inhibition” value was 29% and the Z score is listed as -0.96.

As for `O=C1CCCN1CC(=O)N(Cc1ccsc1)c1cccnc1`, the “% Inhibition” value is reported as -11% and the Z score worked out at 1.15.

In the case of `Nc1ncnc(NCCc2cnc(C3CC3)nc2)c1Cl`, the “% Inhibition” value is reported as -3% and the Z score was determined as 0.38.

For the compound `CCOc1cccc2c1cc(C(=O)NCc1ccc(F)cc1)n2CCOC`, the “% Inhibition” value is recorded as -13% and the Z score is listed as 1.44.

With `O=C(O)CCN1C[C@H](c2ccccc2)[C@@H]2[C@H]1C1CCN2CC1`, the “% Inhibition” value was 1% and the Z score was -0.1.

For `NC(=O)CN[C@@H](Cc1ccccn1)c1ccc(Br)cc1`, the “% Inhibition” value amounted to 10% and the Z score was -1.25.

As to `CCN1CCCN(C(=O)COc2ccc(F)cc2)CC12CCOCC2`, the “% Inhibition” value was -13% and the Z score was 1.7.

For `FC1(F)CCN(CCc2ccncc2)C1`, the “% Inhibition” value is -3% and the Z score stood at 0.48.

As to `COc1ccc(CCNC2CCCCCCC2)cc1`, the “% Inhibition” value was -3% and the Z score was found to be 0.59.

For the compound `CC(=O)N1c2ccc(C)cc2[C@H]2CN(C)CCCC21` (some centres undefined), the “% Inhibition” value is -2% and the Z score is on record as 0.3.

As to `O=C(NC1CC1)[C@H]1CN2CC[C@H]1C[C@@H]2Cn1cc(-c2cccc(O)c2)nn1`, the “% Inhibition” value stood at 34% and the Z score was -3.87.

Turning to `CCNC(=O)CNC(=O)N[C@@H](C)Cc1ccccc1Br`, the “% Inhibition” value is listed as -8% and the Z score is on record as 0.77.

In the case of `O=c1[nH]c2ccccc2cc1CN1C[C@@H]2CS(=O)(=O)C[C@@H]2C1`, the “% Inhibition” value was -9% and the Z score is 0.89.

For `O=C(Oc1c(Br)cc(Br)c2ccccc12)N1CCOCC1`, the “% Inhibition” value is reported as -5% and the Z score was determined as 0.67.

On to `Cc1ncccc1CN1CC2(CCOCC2)CC[C@@H]1CO`, for which the “% Inhibition” value is given as -4% and the Z score is 0.48.

As for `CC1=CCCN(C(=O)NCc2cn(C(C)C)c(=O)[nH]c2=O)C1`, the “% Inhibition” value came out at 0% and the Z score was -0.09.

For the compound `O=C(NC1CC1c1ccccc1)N1C2CCC1C(CO)C2` (centres undefined), the “% Inhibition” value is on record as 0% and the Z score was found to be 0.06.

Turning to `COc1ccc(-n2nnnc2C2(N3CCCCC3)CCCCC2)cc1OC`, the “% Inhibition” value is -6% and the Z score worked out at 0.89.
